Assay results reported in PubChem BioAssay AID504333 (National Center for Advancing Translational Sciences (NCATS), 2011).
Several values for one entry are separate records, joined by “and”; a condition that tells them apart may be missing. Equal entries are not always repeated. Screen size: about 360,000 compounds; about 16,000 (4.4%) were called active. The inconclusive results got no clear call from the source; some entries with a clear call stand among them for comparison. Calls come from the whole dose curve; as a rule, active = well fitted inhibition curve with a large enough effect; inconclusive = small, poorly fitted or top-dose-only effect; inactive = no such curve, though single readings can be large or run the other way. Where the call is inconclusive, the potency comes from a doubtful curve fit.

Target: Bromodomain adjacent to zinc finger domain protein 2B (Homo sapiens) (UniProt Q9UIF8)
Assay: qHTS Assay for Inhibitors of BAZ2B; note: nearly all actives have a fitted effect of over 60% in size
Conditions: AlphaScreen BAZ2B-H3K14Ac peptide displacement; activity change, negative = inhibition: at 114 µM (top of the series) unless noted
Outline: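 AlphaScreen displacement: compounds (up to 110uM) incubated 30 min at room temperature with a preformed 50 nM BAZ2B/50 nM biotinylated H3K14Ac peptide complex in PBS pH 7.4 with Tween-20. Donor and acceptor beads at 10 ug/mL final added, 20 min light-protected before reading.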
% is set by controls: 0 for no effect and ±100 for the full control effect; potency is the fitted concentration of half-maximal effect; tags give direction and shape of the fitted curve.

Sequence of UniProt Q9UIF8 (Q9UIF8 whole entry, looked up, the tested form may be a part): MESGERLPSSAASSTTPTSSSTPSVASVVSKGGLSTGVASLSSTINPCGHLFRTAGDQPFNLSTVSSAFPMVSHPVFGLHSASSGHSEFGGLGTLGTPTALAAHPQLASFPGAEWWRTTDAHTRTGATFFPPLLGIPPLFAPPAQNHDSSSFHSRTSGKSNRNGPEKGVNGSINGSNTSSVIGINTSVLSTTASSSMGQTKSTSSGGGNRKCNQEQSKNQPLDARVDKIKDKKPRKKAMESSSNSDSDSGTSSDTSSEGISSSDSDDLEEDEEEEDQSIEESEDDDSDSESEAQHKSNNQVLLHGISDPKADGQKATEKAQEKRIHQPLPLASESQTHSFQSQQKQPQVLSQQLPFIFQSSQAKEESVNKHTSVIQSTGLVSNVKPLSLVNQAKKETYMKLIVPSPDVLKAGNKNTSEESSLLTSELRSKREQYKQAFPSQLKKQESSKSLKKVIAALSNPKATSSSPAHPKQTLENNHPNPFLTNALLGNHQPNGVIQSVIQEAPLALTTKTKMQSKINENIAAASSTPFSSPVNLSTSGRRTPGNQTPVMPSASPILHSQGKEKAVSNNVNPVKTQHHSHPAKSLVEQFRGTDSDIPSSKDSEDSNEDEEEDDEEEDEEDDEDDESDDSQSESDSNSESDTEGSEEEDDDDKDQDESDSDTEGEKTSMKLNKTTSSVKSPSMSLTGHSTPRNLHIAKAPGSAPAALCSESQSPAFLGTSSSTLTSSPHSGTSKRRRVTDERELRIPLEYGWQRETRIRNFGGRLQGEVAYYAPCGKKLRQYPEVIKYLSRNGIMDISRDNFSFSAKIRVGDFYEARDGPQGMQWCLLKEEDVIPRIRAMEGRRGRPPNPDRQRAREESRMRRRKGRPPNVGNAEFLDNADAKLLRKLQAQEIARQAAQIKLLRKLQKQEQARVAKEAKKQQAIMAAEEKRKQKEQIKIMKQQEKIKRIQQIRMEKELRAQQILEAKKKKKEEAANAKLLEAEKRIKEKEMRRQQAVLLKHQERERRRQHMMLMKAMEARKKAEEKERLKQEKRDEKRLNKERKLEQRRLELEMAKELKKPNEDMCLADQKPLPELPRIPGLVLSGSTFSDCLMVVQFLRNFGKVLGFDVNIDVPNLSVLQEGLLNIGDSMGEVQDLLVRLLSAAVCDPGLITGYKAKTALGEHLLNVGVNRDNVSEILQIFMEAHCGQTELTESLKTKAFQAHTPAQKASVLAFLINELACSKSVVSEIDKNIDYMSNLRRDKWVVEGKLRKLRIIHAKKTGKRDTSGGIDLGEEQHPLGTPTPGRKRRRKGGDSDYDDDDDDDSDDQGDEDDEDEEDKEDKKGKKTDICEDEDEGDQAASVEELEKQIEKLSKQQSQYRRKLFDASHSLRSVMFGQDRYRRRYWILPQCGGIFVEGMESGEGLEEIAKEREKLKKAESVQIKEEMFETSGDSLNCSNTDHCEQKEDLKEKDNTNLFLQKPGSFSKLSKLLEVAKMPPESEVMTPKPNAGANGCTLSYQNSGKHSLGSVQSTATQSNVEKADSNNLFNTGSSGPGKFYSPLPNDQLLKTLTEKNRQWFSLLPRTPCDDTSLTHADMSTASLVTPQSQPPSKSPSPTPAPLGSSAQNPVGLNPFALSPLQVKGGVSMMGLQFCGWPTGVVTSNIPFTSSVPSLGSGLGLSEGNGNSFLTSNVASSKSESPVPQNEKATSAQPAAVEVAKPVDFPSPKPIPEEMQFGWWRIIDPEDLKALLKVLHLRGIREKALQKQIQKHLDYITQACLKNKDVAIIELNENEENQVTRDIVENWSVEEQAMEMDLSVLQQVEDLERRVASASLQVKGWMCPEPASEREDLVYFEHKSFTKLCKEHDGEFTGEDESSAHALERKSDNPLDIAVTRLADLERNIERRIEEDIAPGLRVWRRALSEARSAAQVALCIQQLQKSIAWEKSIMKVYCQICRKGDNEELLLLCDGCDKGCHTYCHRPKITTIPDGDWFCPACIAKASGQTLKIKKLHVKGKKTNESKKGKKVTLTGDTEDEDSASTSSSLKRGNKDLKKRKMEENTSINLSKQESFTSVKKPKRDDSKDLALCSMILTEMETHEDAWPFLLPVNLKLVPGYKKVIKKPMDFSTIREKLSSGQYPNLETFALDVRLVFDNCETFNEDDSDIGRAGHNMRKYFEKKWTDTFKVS

SMILES	activity change, negative = inhibition	Potency
C/C(=N\NS(=O)(=O)c1ccc(C)c([N+](=O)[O-])c1)c1ccc2c(c1)OCO2	inactive: -27%	–
Cc1ccc(NC(=O)C(NS(=O)(=O)c2ccc3c(c2)CCC(=O)N3)c2ccccc2)cc1C (stereo not drawn)	–	inconclusive: 79.4 µM [inhibitor, partial curve]
COC(=O)C1=C(C)N(Cc2ccccc2)C(=S)N[C@H]1c1cccc(F)c1	–	inconclusive: 79.4 µM [inhibitor, partial curve] and inconclusive: 25.1 µM [inhibitor, full curve]
Cc1ccc(CNS(=O)(=O)c2ccc3c(c2)n(C)c(=O)n3C)cc1	inactive: 2.94%	–
COc1ccc(Cc2nnc(N/N=C/c3ccc(Br)cc3)[nH]c2=O)cc1OC	–	inconclusive: 89.1 µM [inhibitor, single point]
CC(C)(C)c1ccc(OCCCn2ccnc2)cc1	–	active: 50.1 µM
CCCN(CCC)C(=O)c1cc([N+](=O)[O-])cc2c1-c1ccc([N+](=O)[O-])cc1C2=C(C#N)C#N	–	inconclusive: 31.6 µM [inhibitor, partial curve, poor fit]
CCNc1nc(NCC)nc(C(=O)Nc2ccccc2)n1	–	active: 10 µM
CCOc1ccc(N2CC(C(=O)Nc3cc(Cl)ccc3-n3cncn3)CC2=O)cc1 (stereo not drawn)	inactive: 0.64%	–
Cc1ccc(NC(=O)Cn2c(=O)n(CCCCC(=O)NCCc3ccccc3)c(=O)c3ccccc32)c(C)c1	inactive: 0.81%	–
O=C1CCCC2=C1C(c1ccc(Br)cc1)c1c([nH]c(=S)[nH]c1=O)N2 (stereo not drawn)	–	inconclusive: 79.4 µM [inhibitor, single point]
COc1ccc(-c2[nH]ncc2CN2CCN(Cc3cccs3)CC2)c(F)c1	–	inconclusive: 89.1 µM [inhibitor, single point]
Cc1ccc(-n2c(N)c(C(=O)Nc3ccccc3F)sc2=S)cc1C	–	inconclusive: 17.8 µM [inhibitor, full curve]
Cc1cc(C(=O)N/N=C/c2cc(Br)cc([N+](=O)[O-])c2O)c2ccccc2n1	–	active: 50.1 µM
Cc1ccc(C2=NS(=O)(=O)N(C)C(C(=O)NCc3ccco3)=C2)cc1	–	inconclusive: 44.7 µM [inhibitor, partial curve]
COc1ccc(N2Cc3ccc(C(=O)N/N=C\c4ccc(O)cc4O)cc3C2)cc1	–	inconclusive: 70.8 µM [inhibitor, single point]
Cc1cc2cc(CN(CCN(C)C)C(=S)NCc3ccco3)c(=O)[nH]c2cc1C	–	active: 70.8 µM
CC1=C(C(=O)Nc2ccc(CC(=O)NCc3ccccc3C)cc2)SCCO1	–	inconclusive: 79.4 µM [inhibitor, single point]
